The list shows a part of the results. The energies were worked out here from pooled read counts, against the library average; single values are noisy.

The experiment addresses T1, Pho4 (S. cerevisiae) (UniProt P07270).
T1 sequence: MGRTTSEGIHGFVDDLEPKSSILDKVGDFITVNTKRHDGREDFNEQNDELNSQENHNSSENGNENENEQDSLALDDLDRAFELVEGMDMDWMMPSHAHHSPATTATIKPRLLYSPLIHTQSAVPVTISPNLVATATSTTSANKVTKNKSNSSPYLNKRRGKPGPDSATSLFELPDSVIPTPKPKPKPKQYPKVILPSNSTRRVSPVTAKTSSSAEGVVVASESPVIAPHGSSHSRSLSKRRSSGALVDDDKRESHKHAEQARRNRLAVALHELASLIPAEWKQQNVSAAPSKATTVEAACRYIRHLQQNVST
The experiment is described as follows: relative binding free energy (BET-seq); higher = weaker binding. To be noted: reference: library average.
Regarding TAAGTCACGTGAAGGC, the “relative binding free energy” value was 0.37 kcal/mol.
As for AAGGTCACGTGATTGG, the “relative binding free energy” value amounted to 0.29 kcal/mol.
Under GGACGCACGTGAATGT stands 0.2 kcal/mol.
For the sequence ATGTGCACGTGATAGT, the “relative binding free energy” value stood at 0.13 kcal/mol.
For GTTCTCACGTGCTGGG, the “relative binding free energy” value came out at 0.25 kcal/mol.
Under GATACCACGTGTGTGG stands -0.05 kcal/mol.
For the sequence CGTAGCACGTGATGTA, the “relative binding free energy” value is -0.05 kcal/mol.
The same measure for GACTGCACGTGGAGTG: 0.03 kcal/mol; for GAGTTCACGTGACGGT: 0.33 kcal/mol.
Under GTAGTCACGTGTCTAG stands 0.1 kcal/mol.
With TGTCCCACGTGTTGTT, the “relative binding free energy” value was -0.07 kcal/mol.
Regarding ATGATCACGTGTAGTT, the “relative binding free energy” value worked out at 0.24 kcal/mol.
Under CTATTCACGTGGTTGT stands 0.16 kcal/mol; under GCTCGCACGTGTGGGT, -0.04 kcal/mol; under GGGTTCACGTGGAGAG, 0.36 kcal/mol.
The same measure for AGATACACGTGTCGGT: 0.14 kcal/mol; for GGAGTCACGTGAATGT: 0.46 kcal/mol; for GACGGCACGTGGGATG: -0.08 kcal/mol.
The same measure for TGGGACACGTGGCACG: -0.05 kcal/mol; for GGTATCACGTGATGTT: 0.29 kcal/mol.
Take GATTGCACGTGCGGAT: the “relative binding free energy” value was 0 kcal/mol.
AGGTTCACGTGGTATA: the “relative binding free energy” value is 0.21 kcal/mol.
For the sequence GGGCTCACGTGGAGGA, the “relative binding free energy” value was 0.2 kcal/mol.
The same measure for GATGGCACGTGGTATG: -0.01 kcal/mol; for TATAGCACGTGTTCGT: -0.1 kcal/mol.
The same measure for GTTGACACGTGCAGGT: -0.01 kcal/mol; for ATGATCACGTGATGTA: 0.28 kcal/mol; for TAGATCACGTGTAAAT: 0.35 kcal/mol.
Under AACTGCACGTGTAGGT stands 0 kcal/mol; under CGTGGCACGTGAGCGG, 0.11 kcal/mol; under GGTTCCACGTGTTGCG, 0.1 kcal/mol.
With GTACTCACGTGGCGGT, the “relative binding free energy” value turned out to be 0.15 kcal/mol.
For ATGATCACGTGGGCTT, the “relative binding free energy” value was -0.03 kcal/mol.
The same measure for GAGGTCACGTGATGTC: 0.21 kcal/mol; for ATAGACACGTGGTAGG: -0.11 kcal/mol; for TTGGACACGTGGATGA: 0.12 kcal/mol.
Under TTGTACACGTGGCGAG stands -0.11 kcal/mol; under CTGATCACGTGTTGCT, 0.26 kcal/mol; under TATTGCACGTGAATGT, 0.22 kcal/mol.
As to TTTCGCACGTGGAATT, the “relative binding free energy” value was 0.03 kcal/mol.
As to TGAGCCACGTGGATGT, the “relative binding free energy” value was -0.07 kcal/mol.
Regarding TGAAGCACGTGGCTTA, the “relative binding free energy” value was -0.02 kcal/mol.
Under ATGTGCACGTGTAACT stands 0.14 kcal/mol; under TGTATCACGTGCTGCT, 0.05 kcal/mol.
Under GGGGTCACGTGGATCG stands 0.34 kcal/mol.
Under GTACTCACGTGTAGGG stands 0.05 kcal/mol; under CTGGGCACGTGTTGCG, -0.11 kcal/mol; under ATATTCACGTGGTTGC, 0.05 kcal/mol.
Consider AATTCCACGTGATGGT, for which the “relative binding free energy” value was found to be 0.24 kcal/mol.
Under ATTGGCACGTGCGTGT stands -0.21 kcal/mol.
Under GGAGGCACGTGGAGTA stands -0.08 kcal/mol.
The same measure for GATAGCACGTGAGAGG: 0.24 kcal/mol.
In the case of TGTGGCACGTGCGAGC, the “relative binding free energy” value is -0.12 kcal/mol.
For the sequence GTTAACACGTGTTAGG, the “relative binding free energy” value turned out to be 0.15 kcal/mol.
The same measure for GATGTCACGTGGTACG: 0.14 kcal/mol.
In the case of TGGAGCACGTGTGAGA, the “relative binding free energy” value was 0.01 kcal/mol.
As for TGGGTCACGTGGGTTT, the “relative binding free energy” value was determined as 0.11 kcal/mol.
Consider AGGCACACGTGGTGTG, for which the “relative binding free energy” value is -0.11 kcal/mol.
On to GCGGTCACGTGGGAAG, for which the “relative binding free energy” value was 0.12 kcal/mol.
The same measure for ATGAGCACGTGTCGGT: -0.05 kcal/mol; for TGTAGCACGTGGTACG: -0.16 kcal/mol.
Under GTGAACACGTGGATGA stands 0.17 kcal/mol.
For the sequence GCGGTCACGTGGGTAA, the “relative binding free energy” value was -0.12 kcal/mol.
The same measure for TATGGCACGTGGGCTT: -0.12 kcal/mol; for TACCGCACGTGGTGTG: -0.24 kcal/mol; for TGGGGCACGTGATCGA: -0.07 kcal/mol.
Under GCTCGCACGTGAGGGG stands 0.24 kcal/mol; under GCAGACACGTGTGGGT, 0.11 kcal/mol; under ATGTTCACGTGGTACG, 0.2 kcal/mol.
Consider GAGCTCACGTGTAGTT, for which the “relative binding free energy” value was 0.49 kcal/mol.
With GGGCTCACGTGGGCCT, the “relative binding free energy” value came out at 0.29 kcal/mol.
For GTAAGCACGTGAGTGG, the “relative binding free energy” value was determined as 0.15 kcal/mol.
Under CGGCTCACGTGATAGG stands 0.4 kcal/mol.

(Values after the BET-seq Pho4 binding data (Le et al. 2018).)
